# Measurements taken from the supplement of paper PMC11417369.
# ± gives the standard deviation of the averaged measurements. Some of the results follow.
# Test system: PfAP2-G AP2 domain (GST-tagged)
# Assay: gcPBM binding intensity (ln(normalized median fluorescence intensity)); higher = stronger DNA binding
# Procedure, shortened: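 The highest Masliner-normalised natural-log median intensity across replicate spots of either probe orientation is reported as binding intensity. GST-tagged P. falciparum DNA-binding domains expressed in E. coli were applied for 1 h to an Agilent 4 × 180k array of primer-extended double-stranded 36-bp intergenic genomic probes plus negative controls, and bound protein was detected with Alexa488 anti-GST antibody and scanned at 488 nm.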
row,Sequence,gcPBM binding intensity (ln)
1,AGTGTTTTTTATAAAGTGCAATATAAAAACAAAATG,10.4 ± 0.35
2,TTTTATTTCATTTGTTGTACTTTCAAAATATTATTA [XGTACX_site2192],11.3 ± 0.79
3,AAGAATAAAGAATGGTGTACATGCATATAAAATATT [XGTACX_site5707],11.4 ± 0.74
4,ACATACATATGTAAATGTACAAAATATCCATAGATT [XGTACX_site2782],10.8 ± 0.45
5,ATATACTCATTAATAACACACAATATGATAACAAAT [CACACA_site5913],10.07 ± 0.071
6,CAACATATGCATATGTGTACATATTTTATTTTCAAC [XGTACX_site2237],11.7 ± 1.1
7,AATATATTTCATTTTTGTACACACAACGTTGGAGGG [XGTACX_site6461],11.3 ± 0.69
8,TTTTTTTTTTTTTTTTTTTGTCTTATATATTACGGA [CACACA_negctrl_site322],9.64 ± 0.67
9,GCTACACAATTTTTTAGTACACACATATAAATATAT [XGTACX_site3131],11.4 ± 0.95
10,ATAATGTAGAACTAGAGTACATAAAAAAATAAACAT [XGTACX_site5205],11.5 ± 0.96
11,TTTTTCATATTATACTTTTATATACATATATAAAAA [XGTACX_negctrl_site281],10.3 ± 0.45
12,TAAAGATTGTTCAGTGCATGTTGGCCTGTAAATGGA [TGCATGCA_site315],10.2 ± 0.18
13,TATATATTATCAAGTGGACACACGAAAAAAAGGAAA [CACACA_site3741],11 ± 0.74
14,GTAATTTTGAGATGATGTACATATTTTTTCCTTGTC [XGTACX_site4103],11.3 ± 0.86
15,TAAGATATATTTTTTTGTACACATAATAAAATAATA [XGTACX_site8938],11.2 ± 0.68
16,GATAAATCATATATAACACACATATGAATATTACAA [CACACA_site1321],9.82 ± 0.071
17,AAAAGAAACTTATTTACGCACACTTTATTGCATGTT [CACACA_site3887],10.24 ± 0.042
18,TATACATATATTATATGTACATATATATATAATATA [XGTACX_site2942],11.2 ± 0.76
19,TTAAAGCTGACATATACACACATACATAAATTCATA [CACACA_site5377],10.1 ± 0.12
20,GGACAAGTTTTTTACATAAATAAAAAAAATAAAAAA [XGTACX_negctrl_site125],10.22 ± 0.057
21,ATATATATATAATAAACACACAAATAGATATAACAT [CACACA_site3715],10.1 ± 0.11
22,CCCCCCCACAGACACACACACATACATACCACATAT [CACACA_site2306],11.8 ± 0.76

row,Sequence,gcPBM binding intensity (ln)
1,CGAACAAACAAATAAACACACAAAAAAAAATATATA [CACACA_site1825],9.73 ± 0.21
2,ATACTTATGATAAATACACACTTGAAATTAAGGATT [CACACA_site4772],10.05 ± 0.042
3,AATGTGAAAAAAAAAAGTACAGACCTAATCAAAAAA [XGTACX_site2486],11.5 ± 0.77
4,AAAAAAAATACATACACACACACACCCACATATATA [CACACA_site3561],10.3 ± 0.29
5,AATATAAAAAAAGAGGAGGGATGGTATACTTGTGGT [CACACA_negctrl_site986],10.1 ± 0.11
6,ATAGAAGGCAACTTGGTGCACAAAAAAAAAAATAAT,10.5 ± 0.33
7,CTGGAGTTAAAAATGTGTACCTAAAAAATTTTGTTC [XGTACX_site5554],11.3 ± 0.81
8,ATTATTATATATAAAACACACAATTTTGTTTTCACA [CACACA_site3965],9.83 ± 0.042
9,ATTTTTTAAAAAAACATACACACAAAAAAAAAAAAA [CACACA_site3936],9.96 ± 0.45
10,CATAATATCTCTTTGTGTACATATAGTTATTATTAT [XGTACX_site7688],11.4 ± 0.82
11,ATATAATAATATTAAAGTACATGCATATATATTTAT [XGTACX_site7422],10.9 ± 0.54
12,ACTATTTAAATGCAAAGTACTTTGATAATAAACAAT [XGTACX_site2608],11 ± 0.58
13,TAATATAACAAAAAAATAAAATAAAATAAAAAATAA [CACACA_negctrl_site109],9.57 ± 0.085
14,TATAAACATAAATATACACACAAACATATAGGTATT [CACACA_site6690],9.925 ± 0.092
15,GTATTTTTAAATGACACACACATATATAAATATGTA [CACACA_site6880],10.2 ± 0.15
16,ACAAAAATAAGCAAATGTACATATGTATAATATATT [XGTACX_site2492],10.9 ± 0.48
17,CTTGTATATAAACACACACACACTTTCTTTTTTTAA [CACACA_site8602],9.94 ± 0.11
18,AAAAAAAAAAAAAAAAAAAAAAATATATATATATTT [GTGCAC_negctrl_site502],10.9 ± 0.46
19,ATTAATCAATATAGGCGTACAAAAAAAATAAATTAT [XGTACX_site1513],11.6 ± 0.86
20,CCCCTTAATTTATTTTGTACATATAATTTTTTTTTT [XGTACX_site3270],11.1 ± 0.55
21,ATTATTATTTAAAAAAGTACATTGAAGTTCATAATA [XGTACX_site3575],11.4 ± 1.1
22,ATTCATTTTTTGGGGGGTACACCCTTTTAAACATTT [XGTACX_site4797],11.8 ± 1.3

row,Sequence,gcPBM binding intensity (ln)
1,ATATTATAATTGAAGGTGCAAAATGTAATATAGATA [GTGCAC_site9661],10.09 ± 0.085
2,ATTTTTAATGTGATCACACATAAATATTATATATAT [CACACA_site5641],10.1 ± 0.15
3,TGAAATGATATATAAACACACATATATATATATATA [CACACA_site3511],9.94 ± 0.42
4,GTATAAAAAAATATATGTACTTATTTACATATATAT [XGTACX_site4744],11.3 ± 0.81
5,ACTATATTTGCCCTTTTAATCAGAACAAAAAAAAAA [CACACA_negctrl_site1051],10.3 ± 0.45
6,GTAAAAGTTAAAAAAACATGCAAAATTTAAAAAAAA [TGCATGCA_site637],9.69 ± 0.057
7,ATACATATATATATTCTACACACTTATAATATAATA [CACACA_site8782],9.885 ± 0.078
8,ATTATATTCCAAGTTTGTACATATATATAAAAGTAT [XGTACX_site1631],11 ± 0.52
9,ATAATATAAATATTAACACACATCCTTTTATGTATA [CACACA_site6685],9.74 ± 0.17
10,TTTCTTCTGCATTATGCACACTATAATTCGTTAAAA [CACACA_site5568],10.2 ± 0.27
11,TTTTCTTTTACAAAGGGTACATAATTTAAATTCATA [XGTACX_site3876],11.3 ± 0.86
12,AGTATAAAAATAAGCACACACACAAATATATATTTA [CACACA_site923],10.3 ± 0.27
13,AAATAAGCATATACAAACATGCATACATATAAATAA [CACACA_negctrl_site246],9.745 ± 0.049
14,AAAAAAAAAAAATCATGTACTTATTTTTCATTGTTG [XGTACX_site1542],11.3 ± 0.83
15,TATATGCACTTAATATGTACACAAAAAAAAAAAAAA [XGTACX_site6199],11.5 ± 1.2
16,CTTATATTAAAAACTTGTACACATGTTAAGAATTTT [XGTACX_site5857],11.3 ± 0.98
17,TTTATATATTATACATGTACATATTTATTTATATAA [XGTACX_site3474],11.3 ± 0.67
18,TATTTTATAATTTACCGTACATTAATTGTATTATTA [XGTACX_site5722],10.9 ± 0.54
19,ATATATTTTATATGTGTGCACTATATATATATATAT,10.3 ± 0.47
20,ATATATTTTAAAGAAAGTACCCACCGTTTGAAGTCA [XGTACX_site2273],11.1 ± 0.7
21,ATTAATATATAACGTGCACACACACCGTTACGTATG [CACACA_site8543],10.5 ± 0.14
22,TGTTATATATATTGACTTAATAAATAAATAAATATA [GTGCAC_negctrl_site590],9.65 ± 0.27

row,Sequence,gcPBM binding intensity (ln)
1,TCTTATTTTATAAATATAAATATATATATATATATA [GTGCAC_negctrl_site479],9.94 ± 0.3
2,CTCCTCATATAATTTTGTACATAAAAAATTACCATT [XGTACX_site3879],11.2 ± 0.54
3,TTACAAAACACTTATACACACATATAAATATAAATA [CACACA_site7307],10 ± 0.11
4,TATTTTGCTCATCCATGTACACATAGATATATTTTA [XGTACX_site8244],11.4 ± 0.9
5,TTCTTTTCAGAAGGAAAGAATTATAACATATCATAA [XGTACX_negctrl_site548],9.79 ± 0.15
6,ATATTATGTGAAGAACGTACAAATTTTTACACTATA [XGTACX_site1485],11 ± 0.56
7,AATATATCAAAAATTGGATAGTTTCTTATAAAAAAT [CACACA_negctrl_site39],9.73 ± 0.028
8,CTATAAATAACAGAAAGTACATATACATGGATATAT [XGTACX_site3317],11.3 ± 0.8
9,TAAAAGAAATAAGGTGCACACATATACATATATATA [CACACA_site8037],10.5 ± 0.5
10,TTTCTAAATGTTTATATATATATATATATATAAATA [GTGCAC_negctrl_site397],9.65 ± 0.29
11,TTTTTTTTTTTTTTTACACACTATAGGGAAAAAAAA [CACACA_site1916],10 ± 0.33
12,ACATATATATATTTATATATATATATATATATGTGA [CACACA_negctrl_site613],9.58 ± 0.18
13,ATAAATAAAAATACATGAACAGGTCAGGTTATTTTT [CACACA_negctrl_site1007],9.91 ± 0.028
14,TTATATATAGAATAAACATGCATTTGTATATGAATA [TGCATGCA_site604],9.94 ± 0.18
15,AAAAATATAATATATCTAAAATTTTTCATTAAATAT [XGTACX_negctrl_site274],9.7 ± 0.071
16,AATAAAAAATAAAAAATAAACAGTATACATATATAT [GTGCAC_negctrl_site31],9.88 ± 0.071
17,TCACATACATTACTTACACACCATATTAATATATAC [CACACA_site8047],10.2 ± 0.11
18,TCATATTAATTTGATAGTACATATACTTTGAAGTCC [XGTACX_site3767],10.9 ± 0.57
19,TGTATATAAACAAGGGGTACAATAATATAAATAAAT [XGTACX_site8675],11.5 ± 0.93
20,TATGTATGCCCTAATGCATGTGAACAAAATAATATA [TGCATGCA_site407],10.2 ± 0.16
21,TATTTTAATCGTAAGTGTACTCTTTTAAGTATATGT [XGTACX_site8591],11.5 ± 1
22,ATTATAACACCTCCCCCCCTTTTTTTATGAAGACCA [CACACA_negctrl_site1043],11.8 ± 0.86
